According to publication PMC10585003:
No constants are given. Whether binding was seen depends on the method and setting. Binding seen in cells or lysates may run through a third protein. Some entries that bind do so weakly or less than the wild type. Where a sequence is shown, tags or fusion partners need not be part of it.

Amino acid sequences for entries named in this document (tags omitted). A change or cut given only in a name is not applied to a line headed by its entry. Chains listed by the source or under a name are the forms on record and can include a tag or linker. Residues count along the entry.
UniProt P31751: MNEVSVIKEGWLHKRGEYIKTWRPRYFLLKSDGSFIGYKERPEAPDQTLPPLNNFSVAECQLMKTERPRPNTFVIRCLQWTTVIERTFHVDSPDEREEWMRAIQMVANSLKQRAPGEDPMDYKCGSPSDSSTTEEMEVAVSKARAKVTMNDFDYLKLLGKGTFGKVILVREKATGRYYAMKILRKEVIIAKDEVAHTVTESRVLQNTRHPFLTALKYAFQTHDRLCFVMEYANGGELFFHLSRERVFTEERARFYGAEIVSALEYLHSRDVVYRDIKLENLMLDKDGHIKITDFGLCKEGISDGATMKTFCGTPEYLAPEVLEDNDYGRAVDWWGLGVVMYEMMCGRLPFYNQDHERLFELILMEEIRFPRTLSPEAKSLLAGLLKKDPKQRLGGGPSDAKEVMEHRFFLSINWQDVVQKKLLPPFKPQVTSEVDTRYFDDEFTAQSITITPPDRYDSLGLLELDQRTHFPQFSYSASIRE
UniProt Q9Y243: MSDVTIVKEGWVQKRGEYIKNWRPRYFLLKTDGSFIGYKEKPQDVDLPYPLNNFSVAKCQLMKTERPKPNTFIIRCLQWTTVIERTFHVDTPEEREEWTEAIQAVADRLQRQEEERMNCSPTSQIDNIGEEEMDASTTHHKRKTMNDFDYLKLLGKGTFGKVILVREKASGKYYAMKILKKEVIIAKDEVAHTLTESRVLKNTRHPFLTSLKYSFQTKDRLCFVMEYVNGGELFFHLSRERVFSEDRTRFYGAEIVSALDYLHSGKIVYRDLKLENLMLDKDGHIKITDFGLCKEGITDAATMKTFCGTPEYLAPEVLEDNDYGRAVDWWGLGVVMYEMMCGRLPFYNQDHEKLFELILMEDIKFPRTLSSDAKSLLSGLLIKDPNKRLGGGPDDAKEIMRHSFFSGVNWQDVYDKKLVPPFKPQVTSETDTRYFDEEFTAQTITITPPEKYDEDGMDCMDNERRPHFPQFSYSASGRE
UniProt P31749: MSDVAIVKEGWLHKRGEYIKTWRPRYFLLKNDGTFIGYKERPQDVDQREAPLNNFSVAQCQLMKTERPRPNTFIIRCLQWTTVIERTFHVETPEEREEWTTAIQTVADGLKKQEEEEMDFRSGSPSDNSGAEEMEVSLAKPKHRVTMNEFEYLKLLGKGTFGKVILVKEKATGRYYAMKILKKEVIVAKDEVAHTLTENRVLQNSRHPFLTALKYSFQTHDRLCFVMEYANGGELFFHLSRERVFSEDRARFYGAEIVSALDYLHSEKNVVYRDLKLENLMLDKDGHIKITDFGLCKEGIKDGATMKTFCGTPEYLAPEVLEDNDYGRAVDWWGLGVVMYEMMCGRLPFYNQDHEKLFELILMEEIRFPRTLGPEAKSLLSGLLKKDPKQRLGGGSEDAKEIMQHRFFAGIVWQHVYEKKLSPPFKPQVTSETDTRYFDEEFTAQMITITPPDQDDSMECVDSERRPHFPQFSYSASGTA
AKT1 lacking the PH domain, HA-tagged (pCDNA3-HA-AKT1-aa120-433): residues 120-433 of P31749
AKT1Δ111–126-HA (P31749, form named): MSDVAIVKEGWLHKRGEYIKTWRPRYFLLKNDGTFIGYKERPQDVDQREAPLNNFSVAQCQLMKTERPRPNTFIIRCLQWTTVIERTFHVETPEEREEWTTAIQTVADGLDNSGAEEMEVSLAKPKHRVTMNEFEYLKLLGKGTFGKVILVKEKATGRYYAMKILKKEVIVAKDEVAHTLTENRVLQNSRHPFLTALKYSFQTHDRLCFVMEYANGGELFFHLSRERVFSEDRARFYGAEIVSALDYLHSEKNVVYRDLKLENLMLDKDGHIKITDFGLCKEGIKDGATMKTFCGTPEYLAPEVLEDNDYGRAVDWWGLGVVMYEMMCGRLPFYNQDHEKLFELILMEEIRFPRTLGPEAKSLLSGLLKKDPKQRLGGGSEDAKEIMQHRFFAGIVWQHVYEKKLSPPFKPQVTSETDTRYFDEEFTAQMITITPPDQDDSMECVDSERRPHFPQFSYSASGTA

Legend:
Experiment in all cases: co-IP; HEK293T cells transfected with HA- and V5-tagged plasmids individually or together; lysed in ice-cold RIPA buffer with protease inhibitors; lysates incubated with anti-HA or anti-V5 beads overnight at 4 °C, washed four times with RIPA; Western blot with anti-V5 HRP or anti-HA HRP
[1] = biological target: T1, KSHV viral protein kinase (vPK), wild type, V5-tagged (Kaposi's sarcoma-associated herpesvirus (KSHV)) (UniProt F5HGH5)
T1 sequence: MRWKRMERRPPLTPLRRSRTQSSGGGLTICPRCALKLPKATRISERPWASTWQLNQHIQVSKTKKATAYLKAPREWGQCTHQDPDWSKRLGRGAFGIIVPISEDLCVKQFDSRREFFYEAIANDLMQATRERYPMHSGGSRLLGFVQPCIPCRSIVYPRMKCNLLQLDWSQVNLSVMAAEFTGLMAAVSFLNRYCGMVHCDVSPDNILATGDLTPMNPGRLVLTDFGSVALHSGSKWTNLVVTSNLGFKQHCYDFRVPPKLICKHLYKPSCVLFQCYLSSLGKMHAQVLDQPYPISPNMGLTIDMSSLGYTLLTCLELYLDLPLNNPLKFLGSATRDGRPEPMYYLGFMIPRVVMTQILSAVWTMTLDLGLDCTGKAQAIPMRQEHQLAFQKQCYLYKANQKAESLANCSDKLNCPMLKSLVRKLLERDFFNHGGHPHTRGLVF

AKT2, HA-tagged = AKT2, HA-tagged (UniProt P31751)
AKT3, HA-tagged = AKT3, HA-tagged (UniProt Q9Y243)
[2] = biological target: AKT1, wild type, HA-tagged (UniProt P31749)
[3] = biological target: AKT1 lacking the PH domain, HA-tagged (pCDNA3-HA-AKT1-aa120-433) (UniProt P31749)

AKT1, wild type, HA-tagged (from UniProt P31749 1-480)
binding [1]: binds

AKT1Δ111–126-HA (from UniProt P31749 1-480)
binding [1]: no binding

B1: KSHV viral protein kinase (vPK), wild type, V5-tagged (protein, UniProt F5HGH5 1-444)
chain: T1 sequence
binding (AKT2, HA-tagged): no binding
binding (AKT3, HA-tagged): no binding
binding [2]: binds
binding [3]: no binding
